Laboratory results from article PMC2850121 (Structure (London, England : 1993), 2010).

How the values were obtained:
Assay in all cases: SPR
[1] = molecular target: T1, C-terminally biotinylated IL-13Rα2 (human, UniProt Q14627 29-331, biotin on the C-terminal biotinylation peptide)
T1 sequence (looked up): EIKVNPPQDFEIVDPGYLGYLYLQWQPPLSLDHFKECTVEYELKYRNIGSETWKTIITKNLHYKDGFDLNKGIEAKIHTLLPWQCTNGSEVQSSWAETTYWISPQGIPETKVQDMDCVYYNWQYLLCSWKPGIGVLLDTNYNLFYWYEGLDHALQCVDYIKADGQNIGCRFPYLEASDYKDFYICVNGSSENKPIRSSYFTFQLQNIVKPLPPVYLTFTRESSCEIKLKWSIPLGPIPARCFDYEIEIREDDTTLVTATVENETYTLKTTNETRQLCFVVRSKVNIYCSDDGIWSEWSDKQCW

[2] = molecular target: T2, C-terminally biotinylated IL-13Rα1 (UniProt P78552 22-343, biotin on the C-terminal biotinylation peptide)
T2 sequence (looked up): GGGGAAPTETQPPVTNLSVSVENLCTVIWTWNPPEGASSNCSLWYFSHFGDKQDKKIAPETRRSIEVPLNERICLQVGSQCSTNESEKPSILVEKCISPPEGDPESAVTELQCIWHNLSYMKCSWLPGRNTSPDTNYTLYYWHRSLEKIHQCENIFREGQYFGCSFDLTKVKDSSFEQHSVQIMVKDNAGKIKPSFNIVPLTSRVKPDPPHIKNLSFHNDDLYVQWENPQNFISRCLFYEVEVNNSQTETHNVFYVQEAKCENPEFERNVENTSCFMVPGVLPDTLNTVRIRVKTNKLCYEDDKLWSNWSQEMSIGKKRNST

[3] = molecular target: T1, C-terminally biotinylated IL-13Rα2; remark: listed apart in the source

B1: Human IL-13 ([…]), wild type, fully glycosylated (ligand)
chain: not shown
modifications: fully glycosylated
[1]
  Kd: < 0.1 pM
[2]
  koff: 0.00397 s⁻¹
  kon: 2.35e+06 M⁻¹ s⁻¹
[3]
  koff: 1.93e-06 s⁻¹
  kon: 1.22e+08 M⁻¹ s⁻¹
